# Results from PubChem BioAssay AID1476 (National Center for Advancing Translational Sciences (NCATS), 2009).
# About 4,500 (2.2%) of roughly 200,000 compounds were called active. This list was built around the results that the source calls inconclusive (neither active nor inactive); the mix of calls is not that of the screen. The call rests on the fitted dose curve; in most records, active means well fitted inhibition curve with a large enough effect; inconclusive means small, poorly fitted or top-dose-only effect, or effect the other way; inactive means flat fitted curve, though single readings scatter. Potencies beside an inconclusive call are fits to weak or partial responses and may not hold up.
# Molecular target: Cruzipain (Trypanosoma cruzi) (UniProt P25779)
# Assay: qHTS Assay for Promiscuous and Specific Inhibitors of Cruzain (without detergent); further: nearly all actives have a fitted effect of over 40% in size;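 on max response, negative = inhibition: plate controls were enzyme without inhibitor for no effect and buffer without enzyme for full effect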
# Conditions: purified cruzain, Z-FR-AMC fluorescence, no detergent
# Summary of the method: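 Purified cruzain at 1.5 nM, pre-incubated 15 min with compound at room temperature in 100 mM sodium acetate pH 5.5, 5 mM DTT, 0.00005% Triton X-100. Reaction started with 2 uM Z-FR-AMC; AMC fluorescence increase over 60 s gives rate.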
# Potency means the concentration at half of the fitted maximal effect; tags describe the fitted curve by direction and shape.
# Sequence of UniProt P25779 (P25779 whole entry, looked up): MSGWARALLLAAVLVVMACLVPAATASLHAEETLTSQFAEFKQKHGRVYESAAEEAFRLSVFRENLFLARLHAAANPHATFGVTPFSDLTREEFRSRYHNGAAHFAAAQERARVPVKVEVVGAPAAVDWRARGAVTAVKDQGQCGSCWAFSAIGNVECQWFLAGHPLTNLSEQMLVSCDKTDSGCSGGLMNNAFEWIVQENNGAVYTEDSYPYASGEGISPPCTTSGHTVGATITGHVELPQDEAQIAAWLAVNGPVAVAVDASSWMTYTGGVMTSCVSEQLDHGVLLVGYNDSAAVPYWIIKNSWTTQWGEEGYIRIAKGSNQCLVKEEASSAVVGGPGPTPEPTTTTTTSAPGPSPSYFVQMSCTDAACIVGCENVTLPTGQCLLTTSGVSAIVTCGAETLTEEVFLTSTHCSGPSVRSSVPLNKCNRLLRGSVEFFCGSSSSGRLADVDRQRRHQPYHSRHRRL
SMILES,Potency,"max response, negative = inhibition"
COC(=O)c1c(NC(=O)CSc2nnnn2-c2ccccc2)sc2c1CCCC2,"inconclusive: 25.1 µM [inhibitor, single point]",–
COc1cc2nc(C3CCC3)n(NC(=O)C3CCCC(OC)C3)c(=O)c2cc1OC (centres undefined),"inconclusive: 39.8 µM [activator, single point]",–
CCC(=O)Nc1nnc(SCC(=O)N2c3ccccc3CC2C)s1 (centres undefined),active: 12.6 µM,–
O=C(O)CCC(=O)N1CCc2cc(S(=O)(=O)N3CCC(Cc4ccccc4)CC3)ccc21,"inconclusive: 10 µM [activator, partial curve]",–
O=C(CSc1nnc(Cn2c(=O)sc3ccccc32)n1CCc1ccccc1)N1CCOCC1,"inconclusive: 31.6 µM [activator, single point]",–
COc1cccc(CNC(=O)CN2C(=O)N(c3c(C)cccc3C)S(=O)(=O)c3ccccc32)c1OC,"inconclusive: 39.8 µM [activator, single point]",–
COc1ccc(OC)c(NC(=O)C(C)n2nc(C)c3c(C)n(-c4ccccc4)nc3c2=O)c1 (centres undefined),–,inactive: 5.79%
CCOc1ccc(S(=O)(=O)N(C(=O)c2ccco2)c2cc3sc(=O)oc3c3ccccc23)cc1,"inconclusive: 39.8 µM [inhibitor, single point]",–
O=C(CNC(=O)c1ccco1)OCC(=O)c1ccc2c(c1)CCCC2,–,inactive: -0.493%
O=c1[nH]c2ccc(NCc3ccc(-c4ccc(Cl)cc4)o3)cc2[nH]1,"inconclusive: 10 µM [inhibitor, single point]",–
CCOc1ccccc1Nc1nc(-c2ccc(C)cc2)c(CC(=O)O)s1,"inconclusive: 25.1 µM [inhibitor, single point]",–
CC1=C(C(=O)OCc2ccc3c(c2)OCO3)C(c2ccccc2)NC(=O)N1 (centres undefined),–,inactive: -5.67%
COCCn1nnnc1CN(Cc1ccco1)Cc1cc2cc3c(cc2[nH]c1=O)OCO3,–,inactive: 6.74%
Cc1c(Cl)c([N+](=O)[O-])nn1CCCC(=O)Nc1cc(Oc2ccccc2)cc([N+](=O)[O-])c1,"inconclusive: 20 µM [inhibitor, single point]",–
Cc1nc(-n2nc(C)c(Cc3ccc(Cl)cc3)c2C)sc1C(=O)N1CCCCC1C (centres undefined),–,inactive: 5.11%
COc1ccc(CCN2CN(S(=O)(=O)c3ccc(C)cc3)c3nc4ccccc4nc32)cc1OC,"inconclusive: 31.6 µM [activator, single point]",–
CC(=O)N1CCN(c2nc3c(C)ccc(Cl)c3s2)CC1,"inconclusive: 39.8 µM [activator, single point]",–
COc1ccccc1-c1noc(-c2ccccc2C(=O)Nc2cccnc2)n1,–,inactive: 7.75%
Cc1ccc(C(=O)Nc2ccc(OCc3ccccc3)cc2)cc1[N+](=O)[O-],active: 12.6 µM,–
O=C(Nc1ccc([N+](=O)[O-])cc1)Nc1nc(-c2ccc(Cl)s2)cs1,active: 5.01 µM,–
Nn1c(Cc2cccc3ccccc23)nnc1SCc1ccc(Cl)c(Cl)c1,"inconclusive: 31.6 µM [inhibitor, single point]",–
COc1ccccc1NC(=O)C/C(N)=N/O,–,inactive: -1.34%

SMILES,Potency,"max response, negative = inhibition"
CN1C(=O)/C(=N/OC(=O)c2ccccc2)c2ccccc21,active: 6.31 µM,–
Cc1ccc(-c2nnc(Nc3ccc(Cl)c(Cl)c3)c3ccccc23)cc1S(=O)(=O)N(C)C,active: 6.31 µM,–
CCC(=O)N1CCc2cc(CNC(=O)Nc3cc(C)ccc3C)ccc21,"inconclusive: 3.16 µM [activator, single point]",–
O=C(c1cc2sccc2n1Cc1ccccc1)N1CCN(c2nc3ccccc3s2)CC1,active: 7.94 µM,–
CCOC(=O)c1c(C)[nH]c(C)c1S(=O)(=O)N1CCCC(C(=O)Nc2ccc(C)c(N(C)C)c2)C1 (centres undefined),–,inactive: 5.91%
Cc1ccc(OCC(=O)N(Cc2ccco2)c2ccccn2)cc1,–,inactive: -5.03%
Cn1c(NCCCO)nc2c(c1=O)C1(CCCCC1)Cc1ccccc1-2,"inconclusive: 25.1 µM [activator, partial curve]",–
CCCCOC(=O)c1ccc(NC(=O)Cc2coc3c(C)c(C)ccc23)cc1,–,inactive: -11.7%
Cc1[nH]c2ccccc2c1/C=N/NC(=O)CNC(=O)c1ccc2c(c1)OCO2,–,inactive: -1.52%
COc1cc(Cl)c(C)cc1NC(=O)c1ccc(CN2C(=O)CCn3nc(C)cc32)cc1,"inconclusive: 39.8 µM [activator, single point]",–
COC(=O)c1ccc2c(c1)NC1=C(C(=O)CC(C)(C)C1)C(c1ccncc1)N2 (centres undefined),"inconclusive: 31.6 µM [inhibitor, single point]",–
Cc1c(Cl)cccc1NC(=O)CSc1ncc(S(=O)(=O)c2ccc(C(C)C)cc2)c(=O)[nH]1,"inconclusive: 3.98 µM [activator, single point]",–
CC(C(=O)Nc1sc2c(c1C(=O)NCC1CCCO1)CCC2)N1C(=O)c2ccccc2C1=O (centres undefined),"inconclusive: 39.8 µM [activator, single point]",–
COc1cccc(/C=N/NC(=O)c2cc(-c3cccn3C)n[nH]2)c1,active: 25.1 µM,–
CC(=O)NC(Cc1ccccc1)C(=O)OCC(=O)c1ccc(F)cc1 (centres undefined),"inconclusive: 0.199 µM [activator, single point]",–
O=C1Nc2ccccc2C12Nc1ccccc1S2 (centres undefined),active: 25.1 µM,–
Cc1cc(NC(=O)COc2ccc(Cl)cc2Cl)n(-c2ccccc2)n1,"inconclusive: 39.8 µM [activator, single point]",–
O=C(O)c1ccc(SSc2ccc(C(=O)O)cn2)nc1,–,inactive: 2.62%
CCn1cc(C(=O)N2CCN(c3ccccc3)CC2)c(=O)c2cc(S(=O)(=O)N3CCCC3)ccc21,"inconclusive: 39.8 µM [activator, single point]",–
CCn1c(C(=O)NCc2ccc(OC)cc2)cc2sc(Cl)cc21,–,inactive: 1.04%
CCCCNC(=O)Cn1ncc2c(C)n(Cc3cccc(Cl)c3)c(C)c2c1=O,–,inactive: 10.5%
COC(=O)c1ccc(CSc2ccc3nnc(-c4cccc(F)c4)n3n2)o1,"inconclusive: 39.8 µM [activator, single point]",–
